Measured values taken from PubChem BioAssay (NCATS).
Inconclusive results, whose numbers are uncertain, are shown with a selection of clear calls. Potencies of inconclusive entries are doubtful fits and often do not repeat. Calls of active or inactive are those of the source. Calls come from the whole dose curve; as a rule, active = well fitted curve in the direction sought with a large enough effect; inconclusive = small, poorly fitted or top-dose-only effect, or another doubt; inactive = no such curve, though single readings can be large; an effect the other way counts as inactive or inconclusive.

assay: Primary qHTS for inhibitors of nuclear receptor binding SET domain protein 2 (NSD2) in an isogenic RCH-ACV NSD2 p.E1099K mutant (9B) (AID 1645876); conditions: RCH-ACV NSD2 E1099K (9B) viability, CellTiter-Glo, 72 h; series mostly up to 44.9 µM; activity change, negative = viability loss: at the top concentration
% is set by controls: 0 for no effect and ±100 for the full control effect; potency is the fitted concentration of half-maximal effect; tags give direction and shape of the fitted curve.
Note: nearly all actives have a fitted effect of over 70% in size.

Structure (SMILES) | Potency | activity change, negative = viability loss
NCCc1cc(O)c(O)cc1O | inconclusive: 33.5 µM [inhibitor, single point] | –
O=C(N1CCCCC1Cc1ccccc1)n1cc(-c2ccc(-c3ccccc3)cc2)nn1 (stereo not drawn) | inconclusive: 18.3 µM [inhibitor, partial curve] | –
Oc1ccc(Cl)cc1Cc1ccccc1 | inconclusive: 21.1 µM [inhibitor, single point] | –
CCN[C@H](C)Cc1cccc(C(F)(F)F)c1 | – | inactive: -12.3% [at 91.9 µM]
COc1cc(CC(C)N)cc2c1OCO2 (stereo not drawn) | inconclusive: 40.4 µM [inhibitor, partial curve, poor fit] | –
CN(Cc1cccc(-c2ccncc2)c1)C(=O)Oc1ccc(-c2ccc(C(N)=O)cc2)cc1 | inconclusive: 1.83 µM [inhibitor, full curve, poor fit] | –
CCCSP(=O)(OCC)SCCC | inconclusive: 71.4 µM [inhibitor, single point] | –
NCC(O)c1ccc(O)cc1 (stereo not drawn) | inconclusive: 29.9 µM [inhibitor, single point] | –
CCCCC/C=C\C/C=C\C/C=C\C/C=C\CCCC(=O)NCC(=O)O | inconclusive: 29.9 µM [inhibitor, single point] | –

assay: Primary qHTS for inhibitors of nuclear receptor binding SET domain protein 2 (NSD2) in an RCH-ACV wild type WT cells (2C) (AID 1645877); conditions: RCH-ACV (leukaemia line) NSD2 WT (2C) viability, CellTiter-Glo, 72 h; series mostly up to 44.9 µM; activity change, negative = cell killing: at the top concentration

Structure (SMILES) | Potency | activity change, negative = cell killing
CC(CC(C#N)(c1ccccc1)c1ccccc1)N(C)C (stereo not drawn) | inconclusive: 6.11 µM [inhibitor, full curve] | –
CC12Cc3cn[nH]c3C=C1CCC1C2CCC2(C)C1CCC2(C)O (stereo not drawn) | inconclusive: 18.3 µM [inhibitor, single point] | –
COc1cc(CC(C)N)cc(OC)c1OC (stereo not drawn) | inconclusive: 66.3 µM [inhibitor, single point] | –
Sc1ccccc1Cl | inconclusive: 21.1 µM [inhibitor, single point] | –
CCCN(CCC)CCc1ccc(OC)c(OCCc2ccccc2)c1 | inconclusive: 23 µM [inhibitor, single point] | –
OC1(c2ccc(Cl)cc2)c2ccccc2C2=NCCN21 (stereo not drawn) | inconclusive: 20.5 µM [inhibitor, partial curve, poor fit] | –
COc1cc(O)c2c(c1)/C=C/C[C@@H](O)[C@@H](O)C(=O)CCC[C@H](C)OC2=O | inconclusive: 20.1 µM [inhibitor, single point] | –
CN1C(=O)C(Cc2ccc3ccccc3c2)N=C(c2ccc(O)cc2)c2cc(Cl)ccc21 (stereo not drawn) | inconclusive: 25.8 µM [inhibitor, single point] | –
C/C=C(\C)C(=O)O[C@@H]1[C@@H](C)[C@]2(O)C3C=C(C)C(=O)[C@@]3(O)CC(CO)=C[C@H]2C2C(C)(C)[C@@]21OC(=O)C(C)CC (stereo partly drawn) | inconclusive: 0.005 µM [inhibitor, full curve, poor fit] | –
CC(O)(CS(=O)(=O)c1ccc(F)cc1)C(=O)Nc1ccc(C#N)c(C(F)(F)F)c1 (stereo not drawn) | inconclusive: 20.9 µM [inhibitor, partial curve] | –
CC(C(=O)c1ccccc1)N(C)C (stereo not drawn) | inconclusive: 33.5 µM [inhibitor, single point] | –
FC(F)(F)c1ccc(N2CCNCC2)nc1Cl | inconclusive: 14.5 µM [inhibitor, partial curve] | –
CCN(CC)C(=O)[C@@H]1C=C2c3cccc4[nH]cc(c34)C[C@H]2N(C)C1 | inconclusive: 160 µM [inhibitor, single point] | –
C[C@H]1CC[C@@H]2[C@@H](C)[C@H]3[C@H](C[C@H]4[C@@H]5CC=C6CC(O[C@@H]7O[C@H](CO)[C@@H](O)[C@H](O[C@@H]8O[C@H](CO)[C@@H](O)[C@H](O)[C@H]8O)[C@@H]7O[C@@H]7O[C@@H](C)[C@H](O)[C@@H](O)[C@H]7O)CC[C@]6(C)[C@H]5CC[C@]34C)N2C1 (stereo partly drawn) | inconclusive: 6.9 µM [inhibitor, single point] | –
CCCCCn1cc(C(=O)Oc2cccc3cccnc23)c2ccccc21 | inconclusive: 18.3 µM [inhibitor, partial curve, poor fit] | –
CC[N+]1(C)CCCC(OC(=O)C(O)(c2ccccc2)c2ccccc2)C1 (stereo not drawn) | – | inactive: 4.52%
CCC1(CC)C(=O)NC(=O)NC1=O | inconclusive: 33.5 µM [inhibitor, single point] | –
CCC1(C2=NCCN2)Cc2ccccc2O1 (stereo not drawn) | inconclusive: 23.7 µM [inhibitor, single point] | –
O=S(=O)(O)C(F)(F)C(F)(F)C(F)(F)C(F)(F)C(F)(F)C(F)(F)C(F)(F)C(F)(F)F | inconclusive: 43.3 µM [inhibitor, partial curve, poor fit] | –
